These results are taken from ChEMBL document CHEMBL4888484, “Replenishing the malaria drug discovery pipeline: Screening and hit evaluation of the MMV Hit Generation Library 1 (HGL1) against asexual blood stage Plasmodium falciparum ,using a nano luciferase reporter read-out” (2022).

Hit rate of the full screen: of about 150,000 compounds, about 540 (0.36%) showed an effect of 50% or more. Some of the results follow.

The subject of the experiment is Plasmodium falciparum. Kind of experiment: Primary screen in NF54 nanoGlo assay, in single point, at 2uM, 72h; a lower Z score goes with more inhibition. It counts as functional, Erythrocyte. Conditions: timepoint 72 hour.
`OCCC[C@@H]1CN(Cc2nc3ccccc3[nH]2)CC[C@@H]1N1CCOCC1`: the “% Inhibition” value is -10% and the Z score is recorded as 1.8.
Taken in the same sequence, the figures for `O=C1C[C@H](c2ccc(F)c(F)c2F)c2c(n(C3CCCC3)[nH]c2=O)N1` were 31% and -3.53.
In the same order, the values of `c1cnc2c(-c3nc([C@H]4CCOC4)no3)cccc2c1` are -15% and 1.88.
Taken in the same sequence, the figures for `COc1cc(C(=O)NC2CC(C)(C)NC(C)(C)C2)ccc1OCc1ccccc1Cl` were 31% and -0.44.
In the case of `CN(C)c1ccc(C(=O)N2CCCCCCC2)cn1`, the “% Inhibition” value worked out at 6% and the Z score is given as -1.1.
In the same order, the values of `CC(C)OC(=O)[C@@H]1CCCN1CC(=O)N1CCOC2CCCCC21` (stereo partly drawn) are 6% and -0.69.
Taken in the same sequence, the figures for `C[C@@H](C(=O)N1Cc2c(C(=O)NC3CC3)nn(C)c2C1)c1ccccc1` were -1% and 0.11.
Taken in the same sequence, the figures for `CCCCn1ncc(C(=O)N2CCN(c3ncc[nH]3)CC2)c1CC` were 7% and -1.48.
As to `CC(C)(O)CCc1ccc(C(=O)N2CCN3CCC[C@H]3C2)cc1`, the “% Inhibition” value is listed as -9% and the Z score is 1.71.
Take `Cn1nc(C(=O)N2CCN(c3ccccn3)CC2)cc1C(F)(F)F`: the “% Inhibition” value is recorded as -8% and the Z score came out at 1.07.
In the case of `Brc1ccc2[nH]cc(Cc3noc([C@@H]4CCOC4)n3)c2c1`, the “% Inhibition” value worked out at 3% and the Z score was -0.41.
In the case of `O=C(NCc1nnc2n1CCC2)c1[nH]nc2c1CCC2`, the “% Inhibition” value was found to be 4% and the Z score is recorded as -0.7.
For `O=C(CNC1(c2cccc(Cl)c2)CC1)NC1CCCC1`, the “% Inhibition” value was -5% and the Z score is on record as 0.56.
In the same order, the values of `CCc1oc2ccccc2c1[C@@H]1CC(=O)Nc2[nH]nc(C(=O)NC)c21` are -10% and 1.28.
In the same order, the values of `COc1ccc(NC(=O)Cn2cnc3nc(N4CCCC4)sc3c2=O)c(OC)c1` are -10% and 1.62.
Taken in the same sequence, the figures for `CO[C@@]12CC[C@@H](O)C[C@@H]1N(C(=O)c1nc3ccccc3[nH]1)CC2` were -3% and 0.59.
Turning to `Cc1ccc(NC(=O)CC(=O)N(C)Cc2nonc2C)c(C)c1`, the “% Inhibition” value is listed as -2% and the Z score is 0.25.
In the case of `Cn1ccc(C(=O)Nc2nc3ccc(Br)cn3n2)cc1=O`, the “% Inhibition” value is reported as -13% and the Z score came to 1.88.
In the case of `Oc1ccccc1CNc1cccc2cccnc12`, the “% Inhibition” value was 96% and the Z score is reported as -8.95.
In the same order, the values of `CC(=O)N(C)CCOc1ccc(N)cc1` are -3% and 0.38.
Consider `C=CCN(CC=C)S(=O)(=O)c1ccc(C)cc1`, for which the “% Inhibition” value was -10% and the Z score came to 1.85.
As to `c1cc(-c2nc3ccccc3o2)cc(-c2nc3ccccc3o2)c1`, the “% Inhibition” value is listed as -13% and the Z score is recorded as 2.52.
In the case of `Cc1nccc(NC2CCC(Nc3ccnc(C)n3)CC2)n1` (stereo not drawn), the “% Inhibition” value was -17% and the Z score was 3.2.
In the same order, the values of `O=C(c1cccs1)N1CC[C@@](O)(c2ccccc2)[C@H](N2CCCC2)C1` are 1% and -0.16.

The % Inhibition is the relative decrease from the control value, in per cent.
